Read-outs that look alike come from different tables or passages of the source. Values belong to the compound of their own block, whether it stands above or below them.
Tests used:
[1] = for signs of toxicity / side effects: 50 mg/kg
[2] = tested on: C. difficile strain 630 spores; test: CDI prophylaxis in mouse CDI model; assay type: in vivo, mice; conditions: for development of CDI: 10^8 CFU spores
[3] = tested on: BSHs secreted by L. gasseri; conditions: Lactobacillus gasseri, 24 h
macrophages J774A.1 = test: Cytotoxicity of CamSA; assay type: cell-based; conditions: 200 μM CamSA
[4] = tested on: bile salt hydrolases (BSHs) of B. longum
in vitro = conditions: human, Caco-2
E. coli cultures = test: Stability in E. coli cultures; conditions: 24 hour incubation
E. coli DH5α = test: Effect of CamSA on bacterial growth; conditions: 10 mM CamSA in medium
Caco-2 cells = test: Cytotoxicity of CamSA; assay type: cell-based
Vero cells [5] = test: Cytotoxicity of CamSA; assay type: cell-based
[6] = tested on: C. difficile strain 630 spores; test: CamSA dosage timing in CDI prevention
B. longum = test: Effect of CamSA on bacterial growth; conditions: 10 mM CamSA in medium
L. gasseri = test: Effect of CamSA on bacterial growth; conditions: 10 mM CamSA in medium
C. difficile cells = test: Effect of CamSA on bacterial growth; conditions: 10 mM CamSA in medium
Vero cells [7] = assay type: cell-based; conditions: 200 μM CamSA
[8] = taurocholate group, dose not given

Structure (SMILES): C[C@H](CCC(=O)O)[C@H]1CC[C@H]2[C@@H]3[C@H](O)C[C@@H]4C[C@H](O)CC[C@]4(C)[C@H]3CC[C@]12C [chenodeoxycholate, reference compound]
- signs of toxicity / side effects ([1]; mouse, in vivo): did not cause any observable side effects
- signs of toxicity / adverse effects ([1]; mouse, in vivo, 300 mg/kg): caused immediate death
- delay of CDI onset ([2]; 50 mg/kg): 24 h
- development of CDI ([2]; 50 mg/kg): moderate to severe signs of CDI

Structure (SMILES): C[C@H](CCC(=O)Nc1cccc(S(=O)(=O)O)c1)[C@H]1CC[C@H]2[C@@H]3[C@H](O)C[C@@H]4C[C@H](O)CC[C@]4(C)[C@H]3C[C@H](O)[C@]12C [CamSA, 3-[(3α,7α,12α-trihydroxy-24-oxo-5β-cholan-24-yl)amino]benzenesulfonic acid]
- fraction hydrolyzed to cholic acid by L. gasseri [3]: Less than 30%
- cell viability, visual observation and trypan blue staining (macrophages J774A.1): appeared healthy
- signs of toxicity / side effects ([1]; mice, gavage, 3 consecutive days): no signs of toxicity
- weight changes ([1]; mice, 50 mg/kg chenodeoxycholate, 50 or 300 mg/kg CamSA, weight daily): no weight changes
- hydrolysis to cholic acid by B. longum culture [4]: hydrolyzed to cholic acid at similar rates
- Papp A→B at 2 h, 10 µM (in vitro): < 1 ×10⁻⁶ cm/s
- Papp B→A at 2 h, 10 µM (in vitro): 10.9 ×10⁻⁶ cm/s
- efflux ratio at 2 h, 10 µM (in vitro): > 2
- recovery (in vitro): 100%
- stability with E. coli cultures (E. coli cultures): stable
- Animals with CDI symptoms ([2]; 5 mg/Kg): 5/5
- Average weight change 3 days post challenge ([2]; 5 mg/Kg): −8%
- Animals with CDI symptoms ([2]; 25 mg/Kg): 5/5
- Average weight change 3 days post challenge ([2]; 25 mg/Kg): −05%
- Animals with CDI symptoms ([2]; 50 mg/Kg): 0/5
- Average weight change 3 days post challenge ([2]; 50 mg/Kg): +05%
- Animals with CDI symptoms ([2]; 300 mg/Kg): 0/5
- Average weight change 3 days post challenge ([2]; 300 mg/Kg): +06%
- development of CDI ([2]; 5 or 25 mg/Kg): developed CDI, but disease onset and severity were less pronounced
- time asymptomatic animals remained free of CDI signs post-challenge ([2]; 50 or 300 mg/kg): at least 14 days
- growth in presence of CamSA (E. coli DH5α): unaffected
- cell viability, visual observation and trypan blue staining (Caco-2 cells): appeared healthy
- cell viability, visual observation and trypan blue staining (Vero cells [5]): appeared healthy
- delay of disease onset compared to DMSO-treated animals ([6]; 300 mg/Kg at 12 hours post-infection): 24 h
- time to clinical endpoint post infection ([6]; 300 mg/kg at 9 or 12 hours post-challenge): 48 h
- Animals with CDI symptoms ([6]; Group I, first 300 mg/Kg CamSA dose 0 h after challenge): 0/5
- Animals with CDI symptoms ([6]; Group II, first 300 mg/Kg CamSA dose 3 h after challenge): 0/5
- Animals with CDI symptoms ([6]; Group III, first 300 mg/Kg CamSA dose 6 h after challenge): 0/5
- Animals with CDI symptoms ([6]; Group IV, first 300 mg/Kg CamSA dose 12 h after challenge): 5/5
- A→B apical to basolateral apparent permeability (Papp) (Caco-2 monolayers; Caco-2): 0.0 10^−6 cm s^−
- growth in presence of CamSA (B. longum): unaffected
- growth in presence of CamSA (L. gasseri): unaffected
- growth in presence of CamSA (C. difficile cells): grew normally
- cell killing by spent media from CamSA treated cultures (Vero cells [7]): less effective at killing

Structure (SMILES): C[C@H](CCC(=O)NCCS(=O)(=O)O)[C@H]1CC[C@H]2[C@@H]3[C@H](O)C[C@@H]4C[C@H](O)CC[C@]4(C)[C@H]3C[C@H](O)[C@]12C [Taurocholate, 2-[(3α,7α,12α-trihydroxy-24-oxo-5β-cholan-24-yl)amino]ethanesulfonic acid, reference compound]
- hydrolysis to cholic acid by B. longum culture [4]: hydrolyzed to cholic acid at similar rates
- stability with E. coli cultures (E. coli cultures): stable
- Animals with CDI symptoms [2, 8]: 3/3
- Average weight change 3 days post challenge [2, 8]: −18%

- A→B apical to basolateral apparent permeability (Papp) (Caco-2 monolayers; human, Caco-2, 2 h, 10 µM): 42.9 10^−6 cm s^−
- B→A basolateral to apical apparent permeability (Papp) (Caco-2 monolayers; human, Caco-2, 2 h, 10 µM): 16.0 10^−6 cm s^−
- Efflux Ratio (Caco-2 monolayers; human, Caco-2, 2 h, 10 µM): 0.4
Structure (SMILES): CC(=O)CC(c1ccccc1)c1c(O)c2ccccc2oc1=O (stereo not drawn) [Warfarin]

- A→B apical to basolateral apparent permeability (Papp) (Caco-2 monolayers; human, Caco-2, 2 h, 10 µM): 0.3 10^−6 cm s^−
- B→A basolateral to apical apparent permeability (Papp) (Caco-2 monolayers; human, Caco-2, 2 h, 10 µM): 1.8 10^−6 cm s^−
- Efflux Ratio (Caco-2 monolayers; human, Caco-2, 2 h, 10 µM): 5.3
Structure (SMILES): CNC(=C[N+](=O)[O-])NCCSCc1ccc(CN(C)C)o1 [Ranitidine]
